# Laboratory results: the supplement of paper PMC8728848
# The list shows a part of the results.
# Columns and labels:
# Test in all cases: glycan array binding signal (z-score within array); higher = stronger binding
# Settings in all cases: glycan notation: IUPAC condensed, linker removed
# [1] = target: Gal(b1-4)GlcNAc(b1-3)GalNAc
# In short: (§1)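 The binding signal is a Z-score computed within each array and averaged over linkers. Arrays of the same protein sequence at different concentrations or buffers were also averaged together. Data originate from 3228 arrays in the Consortium for Functional Glycomics database, kept only where the protein sequence was available.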
# [2] = target: Gal(b1-4)GlcNAc(b1-3)[Fuc(a1-3)GlcNAc(b1-6)]Gal(b1-4)Glc
# In short: as §1
# [3] = target: Gal(b1-4)GlcNAc(b1-3)[Gal(b1-4)GlcNAc(b1-6)]Gal(b1-4)GlcNAc
# In short: as §1
# [4] = target: Gal(b1-4)GlcNAc(b1-3)[Gal(b1-4)GlcNAc(b1-6)]GalNAc
# In short: as §1
# [5] = target: Gal(b1-4)GlcNAc(b1-3)[GlcNAc(b1-6)]Gal(b1-4)GlcNAc
# In short: as §1
# [6] = target: Gal(b1-4)GlcNAc(b1-6)Gal(b1-4)GlcNAc
# In short: as §1
# [7] = target: Gal(b1-4)GlcNAc(b1-6)GalNAc
# In short: as §1
# [8] = target: Gal(b1-4)GlcNAc(b1-6)[Gal(b1-3)]GalNAc
# In short: as §1
# [9] = target: Gal(b1-4)GlcNAc(b1-6)[Gal(b1-4)GlcNAc(b1-3)]GalNAc
# In short: as §1
# Gal(b1-4)GlcNAc6P = target: Gal(b1-4)GlcNAc6P
# In short: as §1
# Gal(b1-6)Gal = target: Gal(b1-6)Gal
# In short: as §1
# Gal3S(b1-3)GalNAc = target: Gal3S(b1-3)GalNAc
# In short: as §1
# Gal3S(b1-3)GlcNAc = target: Gal3S(b1-3)GlcNAc
# In short: as §1
# [10] = target: Gal3S(b1-3)[Fuc(a1-4)]GlcNAc
# In short: as §1
# Gal3S(b1-4)Glc = target: Gal3S(b1-4)Glc
# In short: as §1
# Gal3S(b1-4)Glc6S = target: Gal3S(b1-4)Glc6S
# In short: as §1
# Gal3S(b1-4)GlcNAc = target: Gal3S(b1-4)GlcNAc
# In short: as §1
# Gal3S(b1-4)GlcNAc6S = target: Gal3S(b1-4)GlcNAc6S
# In short: as §1
# [11] = target: Gal3S(b1-4)[Fuc(a1-3)]Glc
# In short: as §1
# [12] = target: Gal3S(b1-4)[Fuc(a1-3)]Glc6S
# In short: as §1
# [13] = target: Gal3S(b1-4)[Fuc(a1-3)]GlcNAc
# In short: as §1
# [14] = target: Gal3S(b1-4)[Fuc(a1-3)]GlcNAc6S
# In short: as §1
# Gal3S4S(b1-4)GlcNAc = target: Gal3S4S(b1-4)GlcNAc
# In short: as §1
# Gal3S6S(b1-4)GlcNAc = target: Gal3S6S(b1-4)GlcNAc
# In short: as §1
# Gal3S6S(b1-4)GlcNAc6S = target: Gal3S6S(b1-4)GlcNAc6S
# In short: as §1
# Gal4S(b1-4)GlcNAc = target: Gal4S(b1-4)GlcNAc
# In short: as §1
# Gal4S6S(b1-4)GlcNAc = target: Gal4S6S(b1-4)GlcNAc
# In short: as §1
# Gal6P(b1-4)GlcNAc = target: Gal6P(b1-4)GlcNAc
# In short: as §1
# Gal6S(b1-3)GlcNAc = target: Gal6S(b1-3)GlcNAc
# In short: as §1
# Gal6S(b1-3)GlcNAc6S = target: Gal6S(b1-3)GlcNAc6S
# In short: as §1
# Gal6S(b1-4)Glc = target: Gal6S(b1-4)Glc
# In short: as §1
# Gal6S(b1-4)Glc6S = target: Gal6S(b1-4)Glc6S
# In short: as §1
# Gal6S(b1-4)GlcNAc = target: Gal6S(b1-4)GlcNAc
# In short: as §1
# Gal6S(b1-4)GlcNAc6S = target: Gal6S(b1-4)GlcNAc6S
# In short: as §1
# GalNAc(a1-3)Gal = target: GalNAc(a1-3)Gal
# In short: as §1
# GalNAc(a1-3)GalNAc = target: GalNAc(a1-3)GalNAc
# In short: as §1
# [15] = target: GalNAc(a1-3)GalNAc(a1-3)Gal(a1-4)Gal(b1-4)GlcNAc
# In short: as §1
# [16] = target: GalNAc(a1-3)GalNAc(b1-3)Gal(a1-4)Gal(b1-4)Glc
# In short: as §1
# [17] = target: GalNAc(a1-3)GalNAc(b1-3)Gal(a1-4)Gal(b1-4)GlcNAc
# In short: as §1
# GalNAc(b1-3)Gal = target: GalNAc(b1-3)Gal
# In short: as §1
# [18] = target: GalNAc(b1-3)Gal(a1-4)Gal(b1-4)GlcNAc
# In short: as §1
# [19] = target: GalNAc(b1-3)Gal(a1-4)Gal(b1-4)GlcNAc(b1-3)Gal(b1-4)Glc
# In short: as §1
# [20] = target: GalNAc(b1-3)Gal(a1-6)Gal(b1-4)Glc
# In short: as §1
# GalNAc(b1-3)GalNAc = target: GalNAc(b1-3)GalNAc
# In short: as §1
# GalNAc(b1-3)GlcNAc = target: GalNAc(b1-3)GlcNAc
# In short: as §1
binder,measurement,setting,value
"Gal 1 (Mus musculus), P16045 (protein) MACGLVASNLNLKPGECLKVRGEVASDAKSFVLNLGKDSNNLCLHFNPRFNAHGDANTIVCNTKEDGTWGTEHREPAFPFQPGSITEVCITFDQADLTIKLPDGHEFKFPNRLNMEAINYMAADGDFKIKCVAFE",glycan array binding signal (z-score),[1],-0.123
same,glycan array binding signal (z-score),[2],-0.015
same,glycan array binding signal (z-score),[3],0.453
same,glycan array binding signal (z-score),[4],-0.16
same,glycan array binding signal (z-score),[5],-0.057
same,glycan array binding signal (z-score),[6],-0.27
same,glycan array binding signal (z-score),[7],-0.252
same,glycan array binding signal (z-score),[8],-0.218
same,glycan array binding signal (z-score),[9],-0.011
same,glycan array binding signal (z-score),Gal(b1-4)GlcNAc6P,-0.379
same,glycan array binding signal (z-score),Gal(b1-6)Gal,-0.105
same,glycan array binding signal (z-score),Gal3S(b1-3)GalNAc,0.039
same,glycan array binding signal (z-score),Gal3S(b1-3)GlcNAc,2.76
same,glycan array binding signal (z-score),[10],-0.223
same,glycan array binding signal (z-score),Gal3S(b1-4)Glc,1.43
same,glycan array binding signal (z-score),Gal3S(b1-4)Glc6S,0.672
same,glycan array binding signal (z-score),Gal3S(b1-4)GlcNAc,0.745
same,glycan array binding signal (z-score),Gal3S(b1-4)GlcNAc6S,0.979
same,glycan array binding signal (z-score),[11],-0.01
same,glycan array binding signal (z-score),[12],-0.178
same,glycan array binding signal (z-score),[13],-0.502
same,glycan array binding signal (z-score),[14],2.69
same,glycan array binding signal (z-score),Gal3S4S(b1-4)GlcNAc,1.89
same,glycan array binding signal (z-score),Gal3S6S(b1-4)GlcNAc,0.1
same,glycan array binding signal (z-score),Gal3S6S(b1-4)GlcNAc6S,-0.199
same,glycan array binding signal (z-score),Gal4S(b1-4)GlcNAc,-0.247
same,glycan array binding signal (z-score),Gal4S6S(b1-4)GlcNAc,0.046
same,glycan array binding signal (z-score),Gal6P(b1-4)GlcNAc,-0.332
same,glycan array binding signal (z-score),Gal6S(b1-3)GlcNAc,-0.455
same,glycan array binding signal (z-score),Gal6S(b1-3)GlcNAc6S,-0.324
same,glycan array binding signal (z-score),Gal6S(b1-4)Glc,-0.195
same,glycan array binding signal (z-score),Gal6S(b1-4)Glc6S,-0.089
same,glycan array binding signal (z-score),Gal6S(b1-4)GlcNAc,-0.395
same,glycan array binding signal (z-score),Gal6S(b1-4)GlcNAc6S,-0.311
same,glycan array binding signal (z-score),GalNAc(a1-3)Gal,-0.163
same,glycan array binding signal (z-score),GalNAc(a1-3)GalNAc,-0.241
same,glycan array binding signal (z-score),[15],-0.329
same,glycan array binding signal (z-score),[16],-0.428
same,glycan array binding signal (z-score),[17],-0.419
same,glycan array binding signal (z-score),GalNAc(b1-3)Gal,-0.328
same,glycan array binding signal (z-score),[18],-0.41
same,glycan array binding signal (z-score),[19],-0.372
same,glycan array binding signal (z-score),[20],-0.278
same,glycan array binding signal (z-score),GalNAc(b1-3)GalNAc,0.038
same,glycan array binding signal (z-score),GalNAc(b1-3)GlcNAc,-0.343
